According to patent publication US10266577B2, “GLP-1 derivatives, and uses thereof” (Novo Nordisk A/S, priority 2013, dated 2019):
For part of these data: Not every detail of the peptide structures is certain; ends, links or a residue may be inferred. For part of these data: At least one compound was matched to its structure with a doubt left. Numbered stars: 1 amine (or outer) side, 2 acyl side, 3 side chain; on linkers, the order of the positions; unused ones are H or OH. Square brackets hold non-standard residues; d marks the D form. Side chains are listed from the residue outwards. Peptide text beside a SMILES is read from it. * marks the point of attachment. ξ: configuration not given here. Hexadecanoyl(16-SO3H) = O=C(CCCCCCCCCCCCCCCS(=O)(=O)O)*; C18 diacid = O=C(O)CCCCCCCCCCCCCCCCC(=O)*; γGlu = O=C(O)[C@H](CCC(=O)[*:2])N[*:1]; ξγGlu = O=C(O)C(CCC(=O)[*:2])N[*:1]; Cya = N[C@@H](CS(=O)(=O)O)C(=O)O; Trx = NC[C@H]1CC[C@H](C(=O)O)CC1; AEEA = NCCOCCOCC(=O)O; Aib = CC(C)(N)C(=O)O

Legend:
human GLP-1 receptor [1] = molecular target: T1, human GLP-1 receptor (Homo sapiens, UniProt P43220); experiment: In vitro potency: CRE luciferase reporter gene assay in BHK cells expressing the human GLP-1 receptor; assay type: cell-based; settings: whole cell reporter gene assay, BHK clone FCW467-12A/KZ10-1; averages of at least two replicates
T1 construct: expressed in transfected cells; host or cells: BHK cells (parent line BHKTS13), clone FCW467-12A; membrane preparation

human GLP-1 receptor [2] = molecular target: T1, human GLP-1 receptor; experiment: GLP-1 receptor binding: competitive binding assay (125I-GLP-1, SPA) on isolated membranes at low and high HSA; settings: high serum albumin (2.0% HSA final assay concentration); displacement of 125I-GLP-1
db/db mice = experiment: Pharmacodynamic single-dose study in db/db mice (blood glucose and body weight); assay type: in vivo, mouse; settings: single dose 10 nmol/kg s.c., negative = reduction; for % change in blood glucose 48 h: 48 h vs basal level; for % change in body weight 48 h: 48 h vs basal

T1 sequence (P43220 24-463): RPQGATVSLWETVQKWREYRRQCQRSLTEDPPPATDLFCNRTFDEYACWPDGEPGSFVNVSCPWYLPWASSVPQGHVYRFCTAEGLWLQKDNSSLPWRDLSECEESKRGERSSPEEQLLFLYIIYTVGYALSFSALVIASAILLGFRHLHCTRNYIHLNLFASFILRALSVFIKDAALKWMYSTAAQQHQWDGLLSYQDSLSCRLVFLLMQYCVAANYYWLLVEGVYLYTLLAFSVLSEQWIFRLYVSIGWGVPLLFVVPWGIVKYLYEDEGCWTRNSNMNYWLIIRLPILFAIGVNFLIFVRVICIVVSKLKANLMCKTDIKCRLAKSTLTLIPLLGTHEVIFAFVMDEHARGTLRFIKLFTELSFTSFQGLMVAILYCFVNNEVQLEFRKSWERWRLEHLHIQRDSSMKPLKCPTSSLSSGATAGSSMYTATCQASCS

SMILES | EC50 (human GLP-1 receptor [1]) [nM] | IC50 (human GLP-1 receptor [2]) [nM] | % change in blood glucose 48 h (db/db mice) [%] | % change in body weight 48 h (db/db mice) [%]
CC[C@H](C)[C@H](NC(=O)[C@H](Cc1ccccc1)NC(=O)[C@H](CCC(=O)O)NC(=O)[C@H](CCCNC(=N)N)NC(=O)[C@H](C)NC(=O)[C@H](C)NC(=O)[C@H](CCC(N)=O)NC(=O)[C@H](CCCCNC(=O)COCCOCCNC(=O)COCCOCCNC(=O)[C@H](CS(=O)(=O)O)NC(=O)[C@H]1CC[C@H](CNC(=O)CCCCCCCCCCCCCCCS(=O)(=O)O)CC1)NC(=O)[C@H](CCC(=O)O)NC(=O)[C@H](CC(C)C)NC(=O)[C@H](Cc1ccc(O)cc1)NC(=O)[C@H](CCCCNC(=O)COCCOCCNC(=O)COCCOCCNC(=O)[C@H](CS(=O)(=O)O)NC(=O)[C@H]1CC[C@H](CNC(=O)CCCCCCCCCCCCCCCS(=O)(=O)O)CC1)NC(=O)[C@H](CO)NC(=O)[C@@H](NC(=O)[C@H](CC(=O)O)NC(=O)[C@H](CO)NC(=O)[C@@H](NC(=O)[C@H](Cc1ccccc1)NC(=O)[C@@H](NC(=O)CNC(=O)[C@H](CCC(=O)O)NC(=O)C(C)(C)NC(=O)[C@@H](N)Cc1c[nH]cn1)[C@@H](C)O)[C@@H](C)O)C(C)C)C(=O)N[C@@H](CCCCNC(=O)COCCOCCNC(=O)COCCOCCNC(=O)[C@H](CS(=O)(=O)O)NC(=O)[C@H]1CC[C@H](CNC(=O)CCCCCCCCCCCCCCCS(=O)(=O)O)CC1)C(=O)N[C@@H](Cc1c[nH]c2ccccc12)C(=O)N[C@@H](CC(C)C)C(=O)N[C@H](C(=O)N[C@@H](CCCNC(=N)N)C(=O)NCC(=O)N[C@@H](CCCNC(=N)N)C(=O)NCC(=O)O)C(C)C [Example 4] (H-H[Aib]EGTFTSDVSK([AEEA-AEEA-Cya-Trx-Hexadecanoyl(16-SO3H)])YLEK([AEEA-AEEA-Cya-Trx-Hexadecanoyl(16-SO3H)])QAAREFIK([AEEA-AEEA-Cya-Trx-Hexadecanoyl(16-SO3H)])WLVRGRG-OH; N-terminus and C-terminus assumed) | 0.014 | – | – | –
CC[C@H](C)[C@H](NC(=O)[C@H](Cc1ccccc1)NC(=O)[C@H](CCCCNC(=O)COCCOCCNC(=O)CC[C@H](NC(=O)COCCOCCNC(=O)CCCCCCCCCCCCCCCCC(=O)O)C(=O)O)NC(=O)[C@H](CCCNC(=N)N)NC(=O)[C@H](C)NC(=O)[C@H](C)NC(=O)[C@H](CCC(N)=O)NC(=O)[C@H](CCC(=O)O)NC(=O)[C@H](CCC(=O)O)NC(=O)[C@H](CC(C)C)NC(=O)[C@H](Cc1ccc(O)cc1)NC(=O)[C@H](CCCCNC(=O)COCCOCCNC(=O)CCC(NC(=O)COCCOCCNC(=O)CCCCCCCCCCCCCCCCC(=O)O)C(=O)O)NC(=O)[C@H](CO)NC(=O)[C@@H](NC(=O)[C@H](CC(=O)O)NC(=O)[C@H](CO)NC(=O)[C@@H](NC(=O)[C@H](Cc1ccccc1)NC(=O)[C@@H](NC(=O)CNC(=O)[C@H](CCC(=O)O)NC(=O)C(C)(C)NC(=O)[C@@H](N)Cc1c[nH]cn1)[C@@H](C)O)[C@@H](C)O)C(C)C)C(=O)N[C@@H](C)C(=O)N[C@@H](Cc1c[nH]c2ccccc12)C(=O)N[C@@H](CC(C)C)C(=O)N[C@H](C(=O)N[C@@H](CCCNC(=N)N)C(=O)NCC(=O)N[C@@H](CCCNC(=N)N)C(=O)N[C@@H](CCCCNC(=O)COCCOCCNC(=O)CC[C@H](NC(=O)COCCOCCNC(=O)CCCCCCCCCCCCCCCCC(=O)O)C(=O)O)C(=O)O)C(C)C (stereo partly drawn) [Example 7] (H-H[Aib]EGTFTSDVSK([AEEA-ξγGlu-AEEA-C18 diacid])YLEEQAARK([AEEA-γGlu-AEEA-C18 diacid])FIAWLVRGRK([AEEA-γGlu-AEEA-C18 diacid])-OH; N-terminus and C-terminus assumed) | – | > 1000 | – | –
CC[C@H](C)[C@H](NC(=O)[C@H](Cc1ccccc1)NC(=O)[C@H](CCC(=O)O)NC(=O)[C@H](CCCNC(=N)N)NC(=O)[C@H](C)NC(=O)[C@H](C)NC(=O)[C@H](CCC(N)=O)NC(=O)[C@H](CCCCNC(=O)COCCOCCNC(=O)COCCOCCNC(=O)COCCOCCNC(=O)COCCOCCNC(=O)[C@@H](N)CCCCNC(=O)[C@@H](N)CCCCNC(=O)CCCCCNC(=O)CCCCCCCCCCCCCCCS(=O)(=O)O)NC(=O)[C@H](CCC(=O)O)NC(=O)[C@H](CC(C)C)NC(=O)[C@H](Cc1ccc(O)cc1)NC(=O)[C@H](CCCCNC(=O)COCCOCCNC(=O)COCCOCCNC(=O)COCCOCCNC(=O)COCCOCCNC(=O)[C@@H](N)CCCCNC(=O)[C@@H](N)CCCCNC(=O)CCCCCNC(=O)CCCCCCCCCCCCCCCS(=O)(=O)O)NC(=O)[C@H](CO)NC(=O)[C@@H](NC(=O)[C@H](CC(=O)O)NC(=O)[C@H](CO)NC(=O)[C@@H](NC(=O)[C@H](Cc1ccccc1)NC(=O)[C@@H](NC(=O)CNC(=O)[C@H](CCC(=O)O)NC(=O)C(C)(C)NC(=O)[C@@H](N)Cc1c[nH]cn1)[C@@H](C)O)[C@@H](C)O)C(C)C)C(=O)N[C@@H](CCCCNC(=O)COCCOCCNC(=O)COCCOCCNC(=O)COCCOCCNC(=O)COCCOCCNC(=O)[C@@H](N)CCCCNC(=O)[C@@H](N)CCCCNC(=O)CCCCCNC(=O)CCCCCCCCCCCCCCCS(=O)(=O)O)C(=O)N[C@@H](Cc1c[nH]c2ccccc12)C(=O)N[C@@H](CC(C)C)C(=O)N[C@H](C(=O)N[C@@H](CCCNC(=N)N)C(=O)NCC(=O)N[C@@H](CCCNC(=N)N)C(=O)NCC(=O)O)C(C)C [Example 19] | – | – | −12.5 | −2.4
CC[C@H](C)[C@H](NC(=O)[C@H](Cc1ccccc1)NC(=O)[C@H](CCC(=O)O)NC(=O)[C@H](CCCNC(=N)N)NC(=O)[C@H](C)NC(=O)[C@H](C)NC(=O)[C@H](CCC(N)=O)NC(=O)[C@H](CCCCNC(=O)COCCOCCNC(=O)COCCOCCNC(=O)COCCOCCNC(=O)COCCOCCNC(=O)COCCOCCNC(=O)[C@@H](N)CCCCNC(=O)[C@@H](N)CCCCNC(=O)CCCCCNC(=O)CCCCCCCCCCCCCCCS(=O)(=O)O)NC(=O)[C@H](CCC(=O)O)NC(=O)[C@H](CC(C)C)NC(=O)[C@H](Cc1ccc(O)cc1)NC(=O)[C@H](CCCCNC(=O)COCCOCCNC(=O)COCCOCCNC(=O)COCCOCCNC(=O)COCCOCCNC(=O)COCCOCCNC(=O)[C@@H](N)CCCCNC(=O)[C@@H](N)CCCCNC(=O)CCCCCNC(=O)CCCCCCCCCCCCCCCS(=O)(=O)O)NC(=O)[C@H](CO)NC(=O)[C@@H](NC(=O)[C@H](CC(=O)O)NC(=O)[C@H](CO)NC(=O)[C@@H](NC(=O)[C@H](Cc1ccccc1)NC(=O)[C@@H](NC(=O)CNC(=O)[C@H](CCC(=O)O)NC(=O)C(C)(C)NC(=O)[C@@H](N)Cc1c[nH]cn1)[C@@H](C)O)[C@@H](C)O)C(C)C)C(=O)N[C@@H](CCCCNC(=O)COCCOCCNC(=O)COCCOCCNC(=O)COCCOCCNC(=O)COCCOCCNC(=O)COCCOCCNC(=O)[C@@H](N)CCCCNC(=O)[C@@H](N)CCCCNC(=O)CCCCCNC(=O)CCCCCCCCCCCCCCCS(=O)(=O)O)C(=O)N[C@@H](Cc1c[nH]c2ccccc12)C(=O)N[C@@H](CC(C)C)C(=O)N[C@H](C(=O)N[C@@H](CCCNC(=N)N)C(=O)NCC(=O)N[C@@H](CCCNC(=N)N)C(=O)NCC(=O)O)C(C)C [Example 20] | – | – | −22 | −0.5
